Out of some 310,000 compounds screened, about 14,000 (4.5%) showed an effect of 50% or more. The effect is printed as a negative number. The list shows a part of the results.
biological target: human ether-à-go-go-related gene (hERG) potassium channel (human, UniProt Q12809); assay: primary screen, population patch clamp on CHO cells stably expressing hERG
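Further: peak tail current of the secondary pulse compared with the same well before compound.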

Sequence of human ether-à-go-go-related gene (hERG) potassium channel (Q12809 whole entry, looked up): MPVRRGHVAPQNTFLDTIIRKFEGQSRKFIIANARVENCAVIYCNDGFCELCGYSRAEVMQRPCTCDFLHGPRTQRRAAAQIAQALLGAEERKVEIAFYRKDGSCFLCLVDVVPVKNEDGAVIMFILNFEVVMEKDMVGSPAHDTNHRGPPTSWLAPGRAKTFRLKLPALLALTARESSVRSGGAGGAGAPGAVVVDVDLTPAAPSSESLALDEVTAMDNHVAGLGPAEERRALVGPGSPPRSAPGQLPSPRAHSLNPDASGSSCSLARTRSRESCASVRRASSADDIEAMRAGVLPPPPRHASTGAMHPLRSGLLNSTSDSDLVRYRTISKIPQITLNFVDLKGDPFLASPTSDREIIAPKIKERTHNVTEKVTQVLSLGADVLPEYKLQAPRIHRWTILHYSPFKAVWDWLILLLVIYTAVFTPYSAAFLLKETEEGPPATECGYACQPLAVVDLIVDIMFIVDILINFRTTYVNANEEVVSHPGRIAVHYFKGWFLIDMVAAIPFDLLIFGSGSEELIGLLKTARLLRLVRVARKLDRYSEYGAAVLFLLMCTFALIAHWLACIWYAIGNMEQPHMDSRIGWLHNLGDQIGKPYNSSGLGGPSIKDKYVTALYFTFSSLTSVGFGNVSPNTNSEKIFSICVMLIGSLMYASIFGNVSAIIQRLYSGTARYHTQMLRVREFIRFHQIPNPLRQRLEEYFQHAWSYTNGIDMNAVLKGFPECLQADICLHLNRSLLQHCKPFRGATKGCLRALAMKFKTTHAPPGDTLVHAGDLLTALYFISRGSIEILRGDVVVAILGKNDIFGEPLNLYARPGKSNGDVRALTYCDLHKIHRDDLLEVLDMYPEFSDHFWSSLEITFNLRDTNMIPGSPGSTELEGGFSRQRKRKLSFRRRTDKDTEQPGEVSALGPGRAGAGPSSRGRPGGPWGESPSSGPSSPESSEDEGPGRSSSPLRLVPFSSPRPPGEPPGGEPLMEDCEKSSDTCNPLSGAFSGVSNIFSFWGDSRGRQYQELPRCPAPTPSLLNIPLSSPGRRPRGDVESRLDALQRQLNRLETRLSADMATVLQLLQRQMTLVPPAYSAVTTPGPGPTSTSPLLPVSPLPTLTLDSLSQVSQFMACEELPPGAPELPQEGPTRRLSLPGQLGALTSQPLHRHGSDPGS

| Compound | hERG current change (%, negative = inhibition) at 10uM [%] |
| --- | --- |
| COc1ccccc1OCCNC(=O)c1ccc2c(c1)CCC2 | -5.96 |
| O=C(CN1CCN(c2nc(-c3ccccc3)cs2)CC1)NCc1ccc2c(c1)OCO2 | -5.24 |
| Cn1nccc1NS(=O)(=O)c1ccc(F)cc1 | 16.5 |
| CCCCNC(=O)N(C)c1nncnc1C(=O)NC | 7.3 |
| O=C(NCCCCc1ccccc1)C1CC(c2cccc(F)c2)=NO1 (centres unmarked) | -28.1 |
| Cc1cnc(C(=O)OC(C)C(=O)c2c(C)[nH]c3ccccc23)cn1 (centres unmarked) | -19.9 |
| COc1ccc2c(C)cc(SCC(=O)NCCN3C(=O)CSC3=O)nc2c1 | 6.31 |
| Cc1ccc(/C=C2/Sc3ccccc3N(CC(=O)NCC3CCCO3)C2=O)cc1 (centres unmarked) | 10.3 |
| Cc1onc(-c2c(Cl)cccc2Cl)c1C(=O)NCCc1ccncc1 | -21.1 |
| C=CCn1c(SCc2cc(=O)n3ccsc3n2)nc2ccccc2c1=O | 1.93 |
| COCCCNC(=O)CN(c1cc([N+](=O)[O-])ccc1OC)S(C)(=O)=O | 12 |
| CC(C)CCN1CN(S(=O)(=O)c2cccs2)c2nc3ccccc3nc21 | 16.2 |
| O=C(/C=C/c1ccc(O)c(O)c1)OCCc1ccccc1 | -14 |
| CCOC(OCC)c1cn(Cc2ccc(C(=O)c3ccccc3)cc2)nn1 | -24.9 |
| Cc1nc2nc(C)c(CCC(=O)N3CCN(c4ccccc4)CC3)c(C)n2n1 | -56.2 |
| COc1cccc(-n2c(O)c(C=NCc3ccccn3)c3ccccc3c2=O)c1 | -26.2 |
| COc1ccc(S(=O)(=O)n2nc(C)c(S(=O)(=O)N3CCOCC3)c2C)cc1OC | 12.8 |
| CCCCN(C(=O)COC(=O)CSc1ccc([N+](=O)[O-])cc1)c1c(N)n(CCC)c(=O)[nH]c1=O | 15.3 |
| Cc1ccccc1C(=O)Nc1ccc(N2CCCC2)cc1.Cl | 4.61 |

| Compound | hERG current change (%, negative = inhibition) at 10uM [%] |
| --- | --- |
| CCCCNC(=S)Nc1ccc(SC(F)F)cc1 | -8.47 |
| COc1cccc(-c2nc(CS(=O)CC(=O)NC3CC3)c(C)o2)c1 (centres unmarked) | -2.33 |
| Cc1cc(C)cc(N(CC(=O)N2CCCCCC2)S(C)(=O)=O)c1 | 6.91 |
| Cc1ccc(C(=O)NCCONC(=O)c2ccc(C)cc2)cc1 | 8.13 |
| COc1ccc(/C=N/NC(=O)CCN2CCN(c3ccccc3)CC2)c(OC)c1OC | -3.73 |
| COc1ccc(CCNC(=O)CC2Nc3ccccc3NC2=O)cc1OC (centres unmarked) | 1.39 |
| CCOC(=O)c1[nH]c(C)c(C(=O)NC2CCN(C(=O)OCC)CC2)c1C | 0.66 |
| CC(NC(=O)c1c(O)c2ccccc2[nH]c1=O)c1ccccc1 (centres unmarked) | 23.9 |
| COc1ccc(OC)c(-c2c(=O)n(OCc3ccccc3Br)c3ccccc3[n+]2[O-])c1 | 11.5 |
| CCc1nc(CN(C)C(=O)C2CCC(=O)N(CCc3cccc(F)c3)C2)no1 (centres unmarked) | -20.4 |
| COc1ccc(C(=O)N/N=C/c2ccc(OC(=O)c3ccccc3)cc2)cc1 | 6.29 |
| O=C(c1cc(-c2ccccc2Cl)on1)N1CCCC1 | 2.97 |
| COc1cccc(C2CC(c3ccccc3)=NN2S(=O)(=O)c2ccccc2)c1OC (centres unmarked) | 4.09 |
| CCOC(=O)C(NC(=O)NCc1ccc(F)cc1)(OCC)C(F)(F)F (centres unmarked) | 2.3 |
| O=C(c1ccc2c(c1)OCO2)N1CCC2(CC1)OCCO2 | -10.6 |
| CCN(CC(=O)Nc1ccc2c(c1)OCCO2)C(=O)C1CC(=O)N(c2ccc(OC)cc2OC)C1 (centres unmarked) | -3.69 |
| O=C(c1ccc(-c2ccccc2)cc1)C1CCCN(C(=O)Cn2cncn2)C1 (centres unmarked) | -2.68 |
| O=C(CN1C(=O)NC2(CCOc3ccccc32)C1=O)Nc1ccc2c(c1)OCCO2 (centres unmarked) | 4.47 |
| CCNC(=S)N1CCN(c2nc(-c3cccc(OC)c3)cs2)CC1 | -1.85 |

| Compound | hERG current change (%, negative = inhibition) at 10uM [%] |
| --- | --- |
| CS(=O)(=O)N1CCN(C(=O)c2ccc(-c3ccccc3)cc2)CC1 | -1.92 |
| Cc1ccc2c(c1)-c1nc3ccccc3cc1C2=NC1CCCCC1 | 21.8 |
| O=C(N/N=C/c1cccnc1)c1ccc([N+](=O)[O-])cc1 | -7.74 |
| CCc1ccc(CN2CCC(n3nccc3NC(=O)c3ccc4c(c3)OCO4)CC2)cc1 | -72 |
| CCOc1cc(C(=O)NC)cc(Br)c1OC | -2.54 |
| O=C(CCN1C(=O)/C(=C/c2ccc3c(c2)OCO3)SC1=S)NNC(=O)c1cccnc1 | 21.4 |
| C=CCCCCCCCCC(=O)Nc1c[nH]c(=O)[nH]c1=O | -0.489 |
| Cc1ccc(C(=O)CCC(=O)OCc2nnc(-c3ccccc3)o2)cc1 | -37.8 |
| C=CCc1ccc(OCCCNCc2ccccc2)c(OC)c1.O=C(O)C(=O)O | -57.4 |
| COc1cccc(OC)c1C(=O)Nc1ccccc1N1CCCCC1 | -17.4 |
| Oc1ccc(Cl)cc1CNCc1ccc(Cl)cc1 | -3.68 |
| CCCCn1c(N)c(N(CCOC)C(=O)c2cccc(OCc3ccccc3)c2)c(=O)[nH]c1=O | 7.53 |
| Cc1ccc(NC(=O)c2cc(=O)c3ccccc3o2)c(C)c1 | -4.43 |
| Cl.Clc1ccc(CNCC2CCCO2)c(Cl)c1 (centres unmarked) | -2.74 |
| COc1ccc(N(CC(=O)NCCSc2ccccc2)S(=O)(=O)c2ccccc2)cc1 | -18.4 |
| Cc1ccc(S(=O)(=O)N(CC(=O)N/N=C/c2ccccc2C(=O)O)c2cc(Cl)cc(Cl)c2)cc1 | 8.58 |
| Cc1ccc(C(=O)Nc2ccn(C)n2)cc1 | 11.2 |
| Cc1cccnc1NC(=O)c1cccc(S(=O)(=O)N2CCN(c3ccccc3)CC2)c1 | -27 |

Reference: article PMC4336329 (PLoS ONE, 2015)
